Assay results as given in the supplement of paper PMC11417369.
± gives the standard deviation of the averaged measurements. This is one part of the list.

Test system: PfAP2-EXP AP2 domain (GST-tagged)
Test: gcPBM binding intensity (ln(normalized median fluorescence intensity)); higher = stronger DNA binding
Summary of the method: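 Binding intensity values are the highest Masliner-normalised natural-log median intensity among replicate spots of either probe orientation. The binding step lasted 1 h in 1× PBS with 1% milk, 0.2 mg/ml BSA, 0.5% salmon testes DNA and 0.03% Triton X-100, using GST-tagged P. falciparum DNA-binding domains expressed in E. coli on an Agilent 4 × 180k array of primer-extended double-stranded 36-bp intergenic genomic probes plus negative controls. Alexa488 anti-GST antibody and a 488 nm scan detected bound protein.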

Sequence	gcPBM binding intensity (ln)
AATATATGCTTTCGTTATATTAAATTCAATTTAATG [GTGCAC_negctrl_site76]	8.56 ± 0.42
TGTATTACGAAAAAATGTACAGAAAAAGAAACAAAA [XGTACX_site2777]	9.11 ± 0.57
TGGGATAGATCATTTACACACACAAAAAAAAAAAAA [CACACA_site2140]	8.09 ± 0.48
TTTGTCATAAGCAATGCATGTAAGTTTCTGACATTA [TGCATGCA_site1007]	8.43 ± 0.38
ATTTATAAAATTAATAGTACATATATTTATATATAT [XGTACX_site4173]	8.305 ± 0.021
TATTGCACAAAATAATTTTATTATACTTTATGTTAG [TGCATGCA_negctrl_site574]	8.34 ± 0.35
CAAAAATAAACTATAGTACACACTTATTATTATGAA [CACACA_site2702]	8.43 ± 0.3
TATGTTCATCATAGCACACATATATAAATTACAACA [CACACA_site3533]	8.52 ± 0.38
ATTTGGCATAGACACACACACACACGCACGCACATA [CACACA_site6424]	8.63 ± 0.47
ATTGTAATCATATGAAGTACTAATATATATTTTAAT [XGTACX_site8350]	8.61 ± 0.3
TTTTTATGTAGAATTTTTTTATTTTTTCAAAATGGA [CACACA_negctrl_site166]	8.06 ± 0.59
AATTTTAAAAATATAACACACATATATAAAATATAT [CACACA_site3610]	8.36 ± 0.37
AATGAAGAAAAAAAAAGTACATTATTTTTAAAACTT [XGTACX_site563]	8.55 ± 0.26
TTTTAAATAAAATATTGTACATTAAAATTGTAATAT [XGTACX_site2128]	8.1 ± 0.33
AAGCAAACATATTAATGTACACACACCCACACACAA [XGTACX_site5806]	8.87 ± 0.33
TAAGATAAATGATAAAGTACTTTTTTTTTTTAAATA [XGTACX_site2326]	8.01 ± 0.38
ATTATAAATATGTATATACACACTTTTAATATTCAT [CACACA_site9367]	8.47 ± 0.33
ACAAAAATATTATATTGTACATTATTAGTTCATATT [XGTACX_site6750]	8.5 ± 0.3
TTTTTATATAAATAATGTACATTTGGTTTTATTATA [XGTACX_site2125]	8.53 ± 0.35
TATTTGTATAAATAAAAATAATATATATCAAATAAC [CACACA_negctrl_site218]	8.41 ± 0.42
AACACCCACAGACACACACACAAAAATGATTAAAAA [CACACA_site2433]	8.55 ± 0.6
TGAACTCATAGGAAAACACACATATGTGTAATATAT [CACACA_site4267]	8.88 ± 0.45

Sequence	gcPBM binding intensity (ln)
AACAAAAAAACAAACACACACACACGCATATTTATA [CACACA_site7680]	8.52 ± 0.2
AAATATAGTATTAAAACACACATTTATATAAAAAGG [CACACA_site1482]	8.59 ± 0.42
AAAAACAACACAGATAAATTAACACACACACACATA [XGTACX_negctrl_site588]	8.76 ± 0.47
TTATGTGATTTTAATTGTACATAAATATTTGTTAAC [XGTACX_site3489]	8.52 ± 0.42
TATATACTCAGACATACACACAAATAAAAAAACACC [CACACA_site5820]	9.21 ± 0.29
CACGCATACAGACACACACACACACGGATATAAATA [CACACA_site6445]	8.53 ± 0.49
CAATAAATCGAAATCGTGCACGGACACATGCAGTAG	9.53 ± 0.23
ATATATATAATAAGTGGTACAAGTTATTCATTAAAT [XGTACX_site7063]	8.64 ± 0.3
AAATAATATAAATACACACACACATATATAAATACA [CACACA_site4465]	8.69 ± 0.48
GGTTCATTTATATGGAGTACAAAAAATATGTATATA [XGTACX_site8209]	8.59 ± 0.25
TAAAGTTATATATTATGTACATATTTGTATACATTT [XGTACX_site2516]	8.7 ± 0.32
AAAGAAAACGGACTTTGTACTTAAATATAATATAAA [XGTACX_site8585]	8.62 ± 0.48
TTTTTTTATACAATTTTATATATTAAATATTATAAT [CACACA_negctrl_site226]	8.3 ± 0.43
ACAAAACTTTTAAGAACACACAAAAATGTACTATCG [CACACA_site7245]	8.47 ± 0.4
CATTTACATGCCAACATGCACTGAACAATCTTTATA [GTGCAC_site9797]	8.85 ± 0.31
CCCTATATAAATAGCTGTACATTTGAACATGTTCAG [XGTACX_site2187]	8.71 ± 0.5
TACAAAAAAAAATAAAATACATATATATATATATAT [XGTACX_negctrl_site608]	10.3 ± 0.18
TTTTATGAATAATTATGTACATAACAAATGATATAT [XGTACX_site8318]	8.79 ± 0.38
TTTACAGGAAAAAATACACACATTATTTTACCTTAT [CACACA_site2833]	8.27 ± 0.35
ACATGCCAAAATCTAATACAATAATAATAAAAAAAA [XGTACX_negctrl_site160]	8.51 ± 0.4
CAATAAAAATTAAAATGTACAAATAAATATAAATAT [XGTACX_site7265]	8.65 ± 0.32
ATGAATTATAAATATTCACACAATATTTTTCATATG [CACACA_site4484]	8.35 ± 0.36
